In all, about 410,000 compounds went through this assay and about 5,000 (1.2%) were called active. The inconclusive results got no clear call from the source; some entries with a clear call stand among them for comparison. The call rests on the fitted dose curve; in most records, active means well fitted inhibition curve with a large enough effect; inconclusive means small, poorly fitted or top-dose-only effect; inactive means no such curve, though single readings can be large or run the other way. Potencies beside an inconclusive call are fits to weak or partial responses and may not hold up.
Test: qHTS for Inhibitors of TGF-b; further: nearly all actives have a fitted effect of over 65% in size
Conditions: HepG2 CAGA-GFP TGF-b/SMAD3 reporter, GFP fluorescence, 18 h, TGF-beta stimulated, 500 pg/mL final; series mostly up to 46.1 µM; activity, negative = inhibition: at the top concentration
Outline: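 HEPG2 CAGA-GFP reporter cells (1000/well, DMEM with 1% FBS) received compounds, then recombinant TGF-beta at 500 pg/mL final for 18 hours at 37 degrees C. Per-cell GFP summed per well was normalised to unstimulated and stimulated DMSO controls before curve fitting.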
On the % scale 0 is the no-effect control and ±100 the full control effect; potency means the concentration at half of the fitted maximal effect; tags describe the fitted curve by direction and shape.

| SMILES | Potency | activity, negative = inhibition |
| --- | --- | --- |
| O=C(Nc1ccc(Cl)cc1)N1CCC(c2nc(-c3ccc(F)cc3)no2)CC1 | inconclusive: 35.5 µM [inhibitor, single point] |  |
| Oc1ccccc1N=Cc1sc2ccccc2c1Cl | inconclusive: 8.91 µM [inhibitor, partial curve, poor fit] |  |
| CCC(CC)c1nnc(NC(=O)c2ccc3c(c2)OCO3)s1 | inconclusive: 5.62 µM [inhibitor, partial curve] |  |
| Cc1ccc(S(=O)(=O)CC(=O)Nc2sc3c(c2C#N)CCCC3)cc1 | inconclusive: 6.31 µM [inhibitor, partial curve, poor fit] |  |
| COc1cccc(-c2nnc(SCN3C(=O)c4ccccc4C3=O)n2C)c1 |  | inactive: -12.1% |
| CC1CN(C(=O)CCS(=O)(=O)c2ccccc2)CC(C)O1 (stereo not given) |  | inactive: -4.38% |
| O=C(NCc1cccc(Cl)c1)c1ccc(-n2cncn2)c2ccoc12 |  | inactive: 20.8% |
| Cc1cc(C2CCCCC2)n(O)c(=O)c1 | inconclusive: 35.5 µM [inhibitor, single point] |  |
| Cc1cc(C)cc(-n2c(SCC(=O)NCc3ccco3)nc3ccccc3c2=O)c1 | inconclusive: 15.8 µM [inhibitor, partial curve, poor fit] |  |
| Cc1ccc(C)c(C(=O)COC(=O)c2n[nH]c3ccccc23)c1 | inconclusive: 20 µM [inhibitor, single point] |  |
| CCCN(CCC)CCNC(=O)C1c2ccccc2C(=O)N2CCc3ccccc3C12 (stereo not given) | inconclusive: 12.6 µM [inhibitor, single point] |  |
| COc1ccc(/C=N/NC(=O)CSc2nnc(CCCc3ccc(OC)c(C)c3)o2)cc1 | inconclusive: 35.5 µM [inhibitor, single point] |  |
| CCCn1cc(S(=O)(=O)c2ccccc2)c(=O)c2cc(F)c(N3CCCC(C)C3)cc21 (stereo not given) | inconclusive: 7.94 µM [inhibitor, partial curve, poor fit] |  |
| COc1ccccc1NC(=O)C(=O)NCC1CCCN1S(=O)(=O)c1cccs1 (stereo not given) | inconclusive: 35.5 µM [inhibitor, single point] |  |
| COc1ccc(C)cc1NC(=O)c1c(C)oc2ncn(CC(C)C)c(=O)c12 |  | inactive: -14.2% |
| CCCCCOc1c(Cl)cc(C(=O)N(Cc2ccc(C)o2)C2CCS(=O)(=O)C2)cc1Cl (stereo not given) | active: 17.8 µM |  |
| CC12CC3CC(C)(C1)CC(C(=O)N1CCN(C(=O)C4CCCO4)CC1)(C3)C2 (stereo not given) | inconclusive: 22.4 µM [inhibitor, single point] |  |
| O=C(c1ccc(Cl)c(S(=O)(=O)N2CCc3ccccc3C2)c1)N1CCN(c2ccccc2)CC1 |  | inactive: 2.19% |
| COc1ccc(-c2cc(CC3(C(=O)O)CCN(C(=O)OC(C)(C)C)CC3)on2)c(OC)c1 |  | inactive: 7.62% |
| O=C(NNC(=O)c1cc(-c2ccc(Cl)cc2Cl)nc2ccccc12)Nc1ccccc1 | inconclusive: 15.8 µM [inhibitor, single point] |  |
| NC(CCc1ccccc1)c1csc(Nc2ccccn2)n1 (stereo not given) | inconclusive: 25.1 µM [inhibitor, single point] |  |
| COc1ccc(NC(=O)CN(c2ccc(OC)c(Cl)c2)S(=O)(=O)c2ccccc2)c(OC)c1 | inconclusive: 3.16 µM [inhibitor, single point] |  |

| SMILES | Potency | activity, negative = inhibition |
| --- | --- | --- |
| CC1=NN(Cc2c(C)nn(Cc3ccccc3)c2C)C(C)(C)C1 |  | inactive: 19.2% |
| Cc1ccc(C)c(Cn2nnc3c(=O)[nH]c(C4CCN(S(=O)(=O)c5ccc(S(=O)(=O)N(C)C)cc5)CC4)nc32)c1 |  | inactive: 2.39% |
| COc1ccc(Cl)cc1C1=CC(=O)C[C@H](c2ccc(F)cc2)C1 | inconclusive: 22.4 µM [inhibitor, partial curve, poor fit] |  |
| CCOc1ccccc1NC(=S)NNS(=O)(=O)c1c(C)cc(C)cc1C |  | inactive: -0.569% |
| CC(C)C(=O)c1cn(CC(=O)NCc2ccc3c(c2)OCO3)c2ccccc12 | inconclusive: 1.26 µM [inhibitor, full curve, poor fit] |  |
| Cc1cccc(N2CCN(C(=O)COc3ccc4c(C)cc(=O)oc4c3C)CC2)c1C | inconclusive: 35.5 µM [inhibitor, single point] |  |
| CC1(C)CC[C@@]23CC[C@]4(C)[C@@](OC2=O)(C3C1)[C@H]1O[C@H]1C1[C@@]2(C)CC[C@H](O)C(C)(C)C2CC[C@]14C (stereo not given in full) |  | inactive: 17.4% |
| CCOC(=O)C1CCCN(c2cc(C)nc3c(-c4ccccc4OC)c(C)nn23)C1 (stereo not given) | inconclusive: 15.8 µM [inhibitor, partial curve, poor fit] |  |
| Cn1c(Cl)c(/C=N/OC(=O)c2ccccc2Cl)c2ccccc21 | inconclusive: 3.55 µM [inhibitor, full curve, poor fit] |  |
| Cc1cccc(N2CCN(C(=O)c3ccccc3SCC(=O)N3CCCC3)CC2)c1C | inconclusive: 35.5 µM [inhibitor, single point] |  |
| CCOC(=O)c1cocc1C(=O)O | inconclusive: 35.5 µM [inhibitor, single point] |  |
| CNC(=O)c1sccc1SCc1c(Cl)cccc1Cl | inconclusive: 0.562 µM [inhibitor, full curve, poor fit] |  |
| ONC(=Nc1ccc(Cl)cc1)c1ccccc1 |  | inactive: -1.11% |
| COc1ccccc1-c1nc2c(c(SCC(=O)Nc3ccc(C)c(C)c3)n1)Cc1c(CO)cnc(C)c1O2 |  | inactive: -18.5% |
| COc1ccc(N(CC(=O)Nc2cccc(Cl)c2C)S(=O)(=O)c2c(C)nn(C)c2C)cc1 | inconclusive: 22.4 µM [inhibitor, single point] |  |
| COc1ccc(C2=C(C)C(=NCCCN3CCN(c4cc(C)ccc4C)CC3)NS2(=O)=O)cc1 | inconclusive: 7.94 µM [inhibitor, partial curve, poor fit] |  |
| Cc1cccnc1C(NC(=O)C1CCN(CCCc2ccccc2)CC1)c1ccc(Cl)cc1 (stereo not given) | inconclusive: 31.6 µM [inhibitor, single point] |  |
| Cc1cccc(-c2noc(-c3ccc(Cl)cc3[N+](=O)[O-])n2)c1 |  | inactive: 0.877% |
| N=c1c2c(-c3ccccc3)c(-c3ccccc3)n(Cc3ccco3)c2ncn1CCCn1ccnc1 | inconclusive: 28.2 µM [inhibitor, single point] |  |
| C=CCNc1nnc(SC2CC(=O)N(c3ccc(OCCC)cc3)C2=O)s1 (stereo not given) | inconclusive: 35.5 µM [inhibitor, single point] |  |
| COC(=O)CS(=O)(=O)c1ccsc1C(=O)Nc1ccc(F)c(F)c1 |  | inactive: -0.805% |
| Oc1ccc(/C=N/Nc2ccc(C(F)(F)F)cn2)cc1 | inconclusive: 20 µM [inhibitor, single point] |  |

| SMILES | Potency | activity, negative = inhibition |
| --- | --- | --- |
| COc1cccc(Cn2c(CNC(=O)Cc3cccc(C)c3)nc3cccnc32)c1 | inconclusive: 35.5 µM [inhibitor, single point] |  |
| N/C(=N\OC(=O)COc1ccc(Cl)cc1Cl)c1ccccn1 | inconclusive: 5.01 µM [inhibitor, full curve, poor fit] |  |
| CCOC(=O)N1CCN(S(=O)(=O)c2ccc(C)cc2)C1c1ccccc1 (stereo not given) |  | inactive: 0.5% |
| O=Cc1c(N2CCCCCC2)nc2ccccn2c1=O | inconclusive: 35.5 µM [inhibitor, single point] |  |
| O=C(CC1c2ccccc2Oc2ccccc21)N1CCN(c2ccccn2)CC1 | inconclusive: 35.5 µM [inhibitor, single point] |  |
| COc1ccc(Cn2c(CCC(=O)Nc3ccccc3)nc3cccnc32)cc1 |  | inactive: -5.66% |
| Clc1cccc(OCCCN2CCCC2)c1Cl |  | inactive: 1.22% |
| CC1=NN(C(N)=S)C(=O)C1N=Nc1cccc(C)c1 (stereo not given) | active: 1.78 µM |  |
| CC(CC(=O)Nc1ccc(Cl)c([N+](=O)[O-])c1)c1ccccc1 (stereo not given) | inconclusive: 35.5 µM [inhibitor, single point] |  |
| O=C(NC(=S)Nc1ccccc1N1CCCCC1)c1cccs1 | inconclusive: 28.2 µM [inhibitor, partial curve, poor fit] |  |
| O=C(Nc1cccc(Cl)c1)c1cccc(Oc2ccc([N+](=O)[O-])cc2Cl)c1 | active: 15.8 µM |  |
| CN(C)CCCNS(=O)(=O)c1ccc(-n2nnc3ccccc32)c([N+](=O)[O-])c1 | inconclusive: 35.5 µM [inhibitor, single point] |  |
| O=C(Nc1cc(S(=O)(=O)N2CCOCC2)ccc1Cl)c1cc([N+](=O)[O-])ccc1Cl | inconclusive: 35.5 µM [inhibitor, single point] |  |
| COc1ccc(Cl)cc1-n1c(/C=C/c2cccc3ccccc23)nc2ccccc2c1=O | inconclusive: 0.316 µM [inhibitor, full curve, poor fit] |  |
| O=C(O)C1=C[C@H](c2ccc(C(F)(F)F)cc2)C[C@H](OCc2ccc(CO)cc2)O1 |  | inactive: 1.63% |
| O=C(c1cccc(Cl)c1)N1CCN(CCc2ccncc2)CC1 | inconclusive: 5.62 µM [inhibitor, single point] |  |
| Oc1ccccc1CNc1ccc(OC(F)(F)F)cc1 | inconclusive: 35.5 µM [inhibitor, single point] |  |
| COc1ccc(S(=O)(=O)N(C)C[C@H]2Oc3ccc(NC(=O)Nc4c(C)noc4C)cc3C(=O)N([C@H](C)CO)C[C@@H]2C)cc1 | inconclusive: 6.31 µM [inhibitor, single point] |  |
| Cc1ccccc1-c1noc(CCC(=O)Nc2cccc(C)c2C)n1 | inconclusive: 0.112 µM [inhibitor, full curve, poor fit] |  |
| Cc1cccc2cc(CN(Cc3cccs3)C(c3nnnn3C3CCCC3)C(C)C)c(=O)[nH]c12 (stereo not given) | inconclusive: 3.55 µM [inhibitor, full curve, poor fit] |  |
| CC(=O)Nc1ccc(-c2ccnc3c2CC(C(=O)Nc2cccc(C(F)(F)F)c2)O3)cc1 (stereo not given) | inconclusive: 15.8 µM [inhibitor, partial curve, poor fit] |  |

— PubChem BioAssay AID588855 (National Center for Advancing Translational Sciences (NCATS), 2011)
